Data on 81 compounds can be found in PubChem BioAssay (NCI).

Values joined by “and” are separate entries in the source; they are usually repeats but may differ in a detail not shown here. Equal values may be shown once.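 Grown in 96-well plates, cells were treated for 48 hours with each compound at five concentrations. Insufficient inhibition: endpoint recorded as highest concentration tested. GI50 = concentration required for 50% inhibition of growth. The concentration for full growth arrest is given as TGI.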 Square brackets hold non-standard residues; d marks the D form. Peptide text beside a SMILES is read from it. * marks the point of attachment. Phe(4-NO2) = N[CH](Cc1ccc([N+](=O)[O-])cc1)C(=O)O; Boc = CC(C)(C)OC(=O)*; OBn = c1ccc(CO*)cc1

The assay concerns NCI-H322M lung. Put plainly: NCI-60 cell line screen, 48 h.

Take `C=C1C(=O)O[C@H]2[C@H]1CC/C(COC(=O)c1cc3cc(F)ccc3[nH]1)=C\CC[C@@]1(C)O[C@@H]21`: the GI50 was 2.69 µM and the TGI came out at 9.68 µM.

On to `Cc1c(-c2c(C)c3ccccc3n2S(=O)(=O)c2ccccc2)n(S(=O)(=O)c2ccccc2)c2ccccc12`, for which the TGI is > 100 µM.

Turning to `CC(=O)OC(Cc1cc(C=C(C(F)(F)F)C(F)(F)F)cc(C)n1)(C(F)(F)F)C(F)(F)F`, the TGI was 4.02 µM.

Take `Cc1cn(C2CC(n3cc(Cn4cc(F)c(=O)[nH]c4=O)nn3)C(CO)O2)c(=O)[nH]c1=O` (centres undefined): the TGI is > 100 µM.

As for `COc1cccc(N2C(=O)C3c4[nH]c5ccccc5c4C4c5ccccc5CCC4C3C2=O)c1` (centres undefined), the TGI is > 10 µM.

Take `Cc1ncc(CN=Cc2ccc(Cl)cc2)c(N)n1`: the TGI is > 100 µM.

On to `COc1nc(N(C)O)nc(N(C)O)n1`, for which the GI50 is 0.752 µM and the TGI is > 100 µM.

On to `CN(C)C(=S)N/N=C\C=N/NC(=S)N(C)C`, for which the TGI was > 100 µM.

As for `COc1cc2c(cc1C[N+](C)(C)CSc1ccccc1)-c1ccccc1CC2`, the TGI came out at 26.2 µM.

As to `CNc1ccc2nc3ccc(=[N+](C)C)cc-3sc2c1`, the GI50 was 5.12 µM and 2.75 µM; the TGI is 22.6 µM and 14.8 µM.

For `Cc1ccc(S(=O)(=O)N/C(=C\C=C\c2ccccc2)C(=O)C(C)(C)C)cc1`, the TGI turned out to be 84.2 µM.

`CCOC(=O)[C@@]1(C)C=C2O[C@@H]3OC4(CCCCC4)O[C@@H]3C2=C2C(O)=CC=C(O)[C@]21C(=O)OC`: the TGI is > 68 µM.

In the case of `N=C1C(c2nc(-c3ccc(Br)cc3)cs2)=C(O)CN1Cc1cccnc1`, the GI50 is 35.8 µM and the TGI was > 100 µM.

With `COc1cc(O)c([C@@H]2C[C@H](CCc3ccc(O)cc3)O[C@H](c3ccc(O)cc3)C2)c(O)c1C(=O)/C=C/c1ccc(O)cc1`, the GI50 was 3.58 µM and the TGI amounted to 12.8 µM.

`COc1ccc(N2C=Nn3c(nc4sc(C)c(C)c4c3=O)C2)cc1`: the TGI was > 100 µM.

`Oc1ccc(Cl)cc1C1=N/C(=N\CN2CCN(C/N=C3/N=C(c4cc(Cl)ccc4O)CC(c4ccccc4)N3)CC2)NC(c2ccccc2)C1` (centres undefined): the TGI is > 100 µM.

`O=[N+]([O-])c1cccc(-c2csc(N=Nc3c(O)[nH]c4ccccc34)n2)c1` displayed a TGI of 92.2 µM.

`CCC1C(=O)C[C@H]2[C@@H]3C(O)CC4=CC(=O)CC[C@]4(C)[C@H]3CC[C@]12C` (some centres undefined): the TGI is > 50 µM.

As for `CC1=NOC2(C1)/C(=N/O)CCC/C2=N\O` (centres undefined), the TGI is > 100 µM.

Regarding `COc1cc(-c2nc3cc(F)ccc3s2)ccc1O`, the TGI is > 100 µM.

Take `CCOC(=O)/C(=C\NCC(O)c1ccccc1)c1nc2ccccc2[nH]1` (centres undefined): the TGI was > 100 µM.

For `COC(=O)Cc1ccc2c(c1)Sc1ccc(CC(=O)OC)cc1N2C`, the TGI was > 100 µM.

Regarding `N#CCC(=O)Nc1cccc(C(F)(F)F)c1`, the TGI was > 100 µM.

Compound `O=[N+]([O-])c1ccc(C(c2c[nH]c3ccccc23)c2c[nH]c3ccccc23)cc1` displayed a TGI of 31.9 µM.

For the compound `Cc1ccc(OCC(=O)N2N=C(c3ccccc3)CC2(O)c2ccccc2)cc1` (centres undefined), the TGI was > 100 µM.

With `COc1ccc2c3c1OC1CC(O)C=CC31CCN(C)C2` (centres undefined), the TGI is > 99.8 µM.

`CC(C)/C(Cl)=N/OC(=O)Nc1ccc(F)c(Cl)c1` came in with a TGI of 32.7 µM.

As to `COC(=O)/C=C/c1ccccc1N=[S@](C)(=O)c1ccc(C)cc1`, the TGI was > 100 µM.

`CC[C@H](C)N(CCN)C(=O)c1cc2ccccc2c(-c2ccccc2Cl)n1` showed a TGI of 26.4 µM.

For `CC(=O)n1c(COS(C)(=O)=O)nc2ccccc21`, the TGI was > 100 µM.

On to `CCOC(C[Se]CC(OCC)OCC)OCC`, for which the TGI is > 100 µM.

In the case of `ClCc1cccc(Cn2cnc3c(Cl)ncnc32)c1`, the GI50 is 1.89 µM and the TGI is 3.5 µM.

`O=c1oc2cc(OS(=O)(=O)c3ccc(F)cc3)ccc2c2c1CCCCC2`: the GI50 is > 100 µM and the TGI was > 100 µM.

Turning to `Cc1ccc(F)cc1NC(=O)O/N=C(\Cl)C(C)C`, the TGI was 33.1 µM.

As to `COc1ccc2nc3cc(Cl)ccc3c(NCCCCCC(=O)NC(COc3cnc4c(ccc5cccnc54)c3)COc3cnc4c(ccc5cccnc54)c3)c2c1`, the TGI is > 100 µM.

Compound `COc1cc2c3c(n(C)c(=O)c2cc1OC)-c1cc2c(cc1/C3=C\CCCCCN)OCO2` showed a TGI of 41.4 µM.

Take `COc1ccc(C(=O)/C(Br)=C/C(=O)O)cc1`: the TGI was 158 µM and 233 µM.

As to `CCOC(=O)/C(O)=C1\C(=O)N(C)C(=O)C1c1ccc(OC)c(OC)c1` (centres undefined), the TGI was > 100 µM.

Consider `COC1C(O)CC(OC2C(C)OC(Oc3cc(O)c4c(O)c5c(cc4c3)C[C@@H]([C@H](OC)C(=O)[C@@H](O)[C@@H](C)O)[C@H](OC3CC(OC4CC(OC6CC(C)(O)C(O)C(C)O6)C(O)C(C)O4)C(O)C(C)O3)C5=O)CC2OC(C)=O)OC1C` (some centres undefined), for which the TGI is > 100 µM.

`COc1cc(-c2nn(-c3ccc(NC(=O)c4ccc(Cl)c(Cl)c4)cc3)cc2-c2ccncc2)ccc1Cl`: the GI50 was > 100 µM and the TGI is > 100 µM.

For the compound `COc1cccc(C2CC(C)(N3CCCC3)Oc3cc4c(cc32)OCO4)c1O` (centres undefined), the TGI is > 100 µM.

Turning to `C=C1CC2(OC1=O)C(=O)N(CCCCCCCN1C(=O)C3(CC(=C)C(=O)O3)c3ccccc31)c1ccccc12` (centres undefined), the GI50 was 8.21 µM and the TGI turned out to be 20.3 µM.

As for `O=C(Nc1ccc(N2CCNCC2)cc1)c1[nH]ncc1Nc1ncnc2sc3c(c12)CCC3`, the GI50 is 0.139 µM and the TGI was determined as 1.44 µM.

On to `CCN(CC)Cc1nc2sc3c(c2c(=O)n1-c1ccccc1)CCCC3`, for which the TGI is > 100 µM.

As to `CC1(C)OP23(NC(=O)OC2(C(F)(F)F)c2ccccc2O3)OC1(C)C` (centres undefined), the TGI was > 100 µM.

Take `COc1ccc2cc(C(=O)/C=C/c3cc(OC)c(OC)c(OC)c3)ccc2c1`: the GI50 is 7.96 µM and the TGI was determined as 19.3 µM.

As to `COC(=O)CCC(NC(=O)OC(C)(C)C)C(=O)NC(Cc1ccc([N+](=O)[O-])cc1)C(=O)NCC(=O)OCc1ccccc1` (centres undefined) (Boc-Glu(OMe)-[Phe(4-NO2)]-Gly-OBn; configuration not given here), the TGI is > 100 µM.

The compound `CCCCCc1cc(OC(=O)c2c(O)cc(OC)cc2CCCCC)cc(O)c1C(=O)O` yielded a TGI of 31.1 µM.

For `CC1=C(C(=O)Nc2ccccc2C)C(c2ccccc2)C(C(=O)Nc2ccccc2C)=C(C)N1`, the TGI was > 100 µM.

With `CCOC(=O)c1ccc(NC(=O)N2CC(C)OC(C)C2)cc1` (centres undefined), the GI50 is > 100 µM and the TGI is > 100 µM.

With `CC(C)(C)OC(=O)n1cc(C2CNC(=O)C23CCC(=O)N3Cc2ccccc2)c2ccccc21` (centres undefined), the TGI was > 100 µM.

Turning to `CC(C)(CO)CNc1cc(=O)[nH]c(N)n1`, the TGI is > 100 µM.

For the compound `COC(=O)N[C@H]1CCc2c(Br)c(OC)c(OC)c(OC)c2-c2ccc(SC)c(=O)cc21`, the GI50 is < 0.01 µM and the TGI was > 100 µM.

On to `CCOc1cc2ncc(C#N)c(Nc3ccc(OCc4cccc(F)c4)c(Cl)c3)c2cc1NC(=O)CC1CCSS1` (centres undefined), for which the GI50 was 0.6 µM and the TGI was 2 µM.

`COc1ccc2c(c1)OC(c1cccnc1)C(c1ccccc1)C2=O` (centres undefined): the TGI was > 100 µM.

The compound `O=C1C(Br)=CC2([N+](=O)[O-])CCNc3c(O)c4c5c(c3C2=C1Br)=NCCC=5C=N4` (centres undefined) had a TGI of 6.05 µM.

For `CNC(=O)c1cc(OC2CCC(NC(=O)Nc3ccc(Cl)c(C(F)(F)F)c3)CC2)ccn1` (centres undefined), the GI50 is 12.7 µM and the TGI worked out at 37 µM.

For `CCNC(=O)Nc1cccc(C)n1`, the TGI is > 100 µM.

For `O=C(Oc1ccc(Cl)cc1Cl)c1ccccc1Nc1ccnc(C(F)(F)F)c1`, the GI50 is 14 µM and the TGI was 28.4 µM.

As for `CC(=O)NCCCCNCCCNC(C)=O`, the TGI was > 100 µM.

As to `Cc1ccc(CNc2c3ccccc3nc3ccccc23)cc1`, the GI50 is 2.09 µM and the TGI came to 5.89 µM.

For `CSc1nc(NC2CCCC2)c2cc[nH]c2n1`, the TGI is > 100 µM.

With `CC(C)(CN)CN`, the TGI was > 100 µM.

In turn, `C=CC[C@H]1[C@@H](O[Si](C)(C)C(C)(C)C)[C@H](n2ccc(=O)[nH]c2=O)O[C@@H]1CO[Si](C)(C)C(C)(C)C` returned a TGI of 6.27 µM.

In the case of `Brc1ccc(N=NN2CCCCC2)cc1`, the TGI is > 100 µM.

Consider `Cc1ccc([N+](=O)[O-])cc1S(=O)(=O)Nc1ccc(C2=NN(c3ccc([N+](=O)[O-])cc3[N+](=O)[O-])C(c3ccccc3)C2)cc1` (centres undefined), for which the TGI came out at 34.6 µM.

With `COc1cc(OC)c([C@@H]2OC(=O)C3C2C(=O)O[C@H]3c2cc(OC)c(OC)cc2OC)cc1OC` (some centres undefined), the TGI was > 100 µM.

On to `O=C(NNc1nc(Cl)nc(N2CCN(C(c3ccccc3)c3ccccc3)CC2)n1)c1ccccc1`, for which the GI50 is 1.67 µM and the TGI was found to be 3.54 µM.

Turning to `O=[N+]([O-])C1C(c2ccccc2)C12c1ccccc1-c1ccccc12` (centres undefined), the GI50 is 5.38 µM and the TGI was 56.1 µM.

Turning to `O=C(CCCCCCSc1nc(-c2ccccc2)cc(-c2ccc(Cl)cc2)n1)NO`, the GI50 is 2.57 µM and the TGI was determined as 11.9 µM.

Regarding `Cc1ccc(C)n2c1nc1ccc3ccccc3c12`, the TGI is > 100 µM.

In the case of `CCCCOC(=O)C(=O)C(CCC(=O)c1ccc(C)cc1)C(=O)C=C(C)C` (centres undefined), the TGI is > 100 µM.

`CC1=C(C)C(=O)c2c(cc3ccc4ccccc4n23)C1=O`: the TGI is > 100 µM.

Turning to `C=CCn1c2c(c3ccccc3c1=O)C(=O)c1ccccc1-2`, the TGI was > 100 µM.

As to `CCCCOC(=O)CNC(=O)OCCCCC#CC#CCCCCOC(=O)NCC(=O)OCCCC`, the TGI is > 100 µM.

With `CCOC(=O)c1c2c(n3ccc(NC(=O)CCN4CCCC4)cc13)C(=O)c1ncccc1C2=O`, the GI50 is 1.5 µM and the TGI is 3.36 µM.

Regarding `Cc1ccc(N=Nc2c(C)nn(C(=O)CC(=O)Nc3ccccc3)c2C)cc1C`, the TGI is > 100 µM.

For the compound `CC(C)C[C@H](NC(=O)[C@H](Cc1cccc2ccccc12)NC(=O)N1CCOCC1)B(O)O`, the GI50 was 0.0406 µM; the TGI was 0.207 µM and 0.184 µM.

For the compound `O=c1[nH]nc(Cc2ccccc2)n1/N=C/c1c[nH]c2ccccc12`, the TGI is > 100 µM.

Take `C[C@@H]1C[C@@H](O)[C@]2(O)O[C@@H]3C[C@@]4(C=O)[C@@H](CC[C@@H]5[C@@H]4CC[C@]4(C)[C@@H](C6=CC(=O)OC6)CC[C@]54O)C[C@H]3O[C@@H]2O1`: the TGI was 0.0861 µM and 0.138 µM.

With `Cc1c2c(nn1-c1ccc(S(=O)(=O)NC(=S)Nc3ccccc3)cc1)-c1ccccc1CC2`, the GI50 was > 50 µM and the TGI is > 50 µM.
